The supplement of paper PMC6206098
± gives the uncertainty stated by the source. The sequences are guide strands of siRNAs; only the seed at positions 2 to 7 varies.

Legend:
HeyA8 = assay: cell viability relative to lipid-only control; higher = less toxic; conditions: concentration: 10 nM; 96 h; Homo sapiens
Description: (§1)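 Arrayed screen of 4096 siRNA duplexes, each carrying one of all possible 6mer seeds at guide-strand positions 2-7 in a fixed neutral 19mer scaffold (constant flanks: U at position 1, then ACAUGUAAACCA, plus a 3' AA overhang). The passenger strand is 2'-O-methylated at positions 1-2 so only the guide strand loads into RISC. Duplexes were reverse-transfected at 10 nM with RNAiMAX in triplicate in 384-well plates; viability was read by CellTiter-Glo ATP content 96 h after transfection. Values are % viability normalised to lipid-only wells (HeyA8, H460, M565) or to siNT1 (3LL).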

H460 = assay: as above; conditions: concentration: 10 nM; 96 h; Homo sapiens
Description: as §1

M565 = assay: as above; conditions: concentration: 10 nM; 96 h; Mus musculus
Description: as §1

3LL = assay: cell viability relative to siNT1 control; HeyA8 human ovarian and H460 human lung cancer; M565 mouse liver and 3LL mouse lung cancer; siNT1 is a non-toxic control siRNA; higher = less toxic; conditions: concentration: 10 nM; 96 h; Mus musculus
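For cell viability relative to lipid-only control in this document: reverse lipid transfection in 384-well plates, in triplicate, of duplexes on a non-toxic 19mer backbone with passenger strand 2′-O-methylated at positions 1 and 2, luminescence viability read-out.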
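For cell viability relative to siNT1 control in this document: Luminescence-based viability of cells reverse transfected in 384-well plates with lipid-complexed siRNAs built on a non-toxic 19mer backbone whose passenger strand carries 2′-O-methyl groups at positions 1 and 2, triplicates.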

| Sequence | cell viability (HeyA8) | cell viability (H460) | cell viability (M565) | cell viability (3LL) |
| --- | --- | --- | --- | --- |
| UCGCAAAACAUGUAAACCAAA | 84.7 ± 2.4% | 70.3 ± 5.7% | 72.9 ± 8.7% | 93.8 ± 13% |
| UCGCAACACAUGUAAACCAAA | 82.7 ± 5.7% | 83.5 ± 8.5% | 69 ± 5.6% | 94.9 ± 14% |
| UCGCAAGACAUGUAAACCAAA | 83.2 ± 4.5% | 75.5 ± 4.2% | 75.3 ± 1.5% | 94 ± 13% |
| UCGCAAUACAUGUAAACCAAA | 85.1 ± 6.3% | 73.7 ± 5.2% | 82 ± 18% | 95 ± 11% |
| UCGCACAACAUGUAAACCAAA | 88.2 ± 4% | 46.6 ± 8.3% | 61.2 ± 5.4% | 92.2 ± 17% |
| UCGCACCACAUGUAAACCAAA | 57.2 ± 1.1% | 43.3 ± 1.1% | 35.6 ± 5% | 63.1 ± 6.7% |
| UCGCACGACAUGUAAACCAAA | 85.3 ± 4% | 65.4 ± 1.6% | 74 ± 10% | 94.6 ± 18% |
| UCGCACUACAUGUAAACCAAA | 63.5 ± 4.3% | 36.4 ± 2.5% | 19 ± 4% | 44.3 ± 12% |
| UCGCAGAACAUGUAAACCAAA | 86.1 ± 11% | 72.5 ± 12% | 63.1 ± 12% | 98.3 ± 20% |
| UCGCAGCACAUGUAAACCAAA | 64.9 ± 2.5% | 43.5 ± 2.7% | 28.9 ± 5.8% | 51.5 ± 21% |
| UCGCAGGACAUGUAAACCAAA | 68.5 ± 7% | 52.5 ± 8% | 29.9 ± 3.2% | 69.6 ± 12% |
| UCGCAGUACAUGUAAACCAAA | 55 ± 1.9% | 68.2 ± 3.3% | 53.2 ± 5.4% | 73 ± 21% |
| UCGCAUAACAUGUAAACCAAA | 82.4 ± 1.8% | 58 ± 7.4% | 80.9 ± 7% | 95.2 ± 21% |
| UCGCAUCACAUGUAAACCAAA | 62.7 ± 4.2% | 68.5 ± 13% | 14.6 ± 3.1% | 75.2 ± 22% |
| UCGCAUGACAUGUAAACCAAA | 84.3 ± 8.7% | 62.2 ± 5.5% | 66.1 ± 3.4% | 101 ± 19% |
| UCGCAUUACAUGUAAACCAAA | 76.3 ± 0.19% | 69.4 ± 9.7% | 62.2 ± 6.7% | 95.1 ± 25% |
| UCGCCAAACAUGUAAACCAAA | 94.5 ± 7.8% | 85 ± 20% | 65.1 ± 2.2% | 101 ± 20% |
| UCGCCACACAUGUAAACCAAA | 68.5 ± 2.8% | 73.5 ± 7.3% | 57.3 ± 8.6% | 77.4 ± 12% |
| UCGCCAGACAUGUAAACCAAA | 81.6 ± 7.3% | 76.3 ± 13% | 62.8 ± 5.3% | 81.5 ± 15% |

| Sequence | cell viability (HeyA8) | cell viability (H460) | cell viability (M565) | cell viability (3LL) |
| --- | --- | --- | --- | --- |
| UCGCCAUACAUGUAAACCAAA | 82.97 ± 0.31% | 92.2 ± 5.4% | 55.9 ± 4.7% | 89.4 ± 27% |
| UCGCCCAACAUGUAAACCAAA | 83.7 ± 7% | 80.5 ± 13% | 44.7 ± 8.4% | 88.1 ± 9.8% |
| UCGCCCCACAUGUAAACCAAA | 71.2 ± 1.7% | 60.8 ± 4.4% | 38 ± 4% | 65.7 ± 18% |
| UCGCCCGACAUGUAAACCAAA | 86.8 ± 0.96% | 70.8 ± 15% | 54 ± 8.4% | 83.6 ± 12% |
| UCGCCCUACAUGUAAACCAAA | 60.2 ± 2.1% | 68.2 ± 12% | 37.1 ± 3.2% | 57.1 ± 12% |
| UCGCCGAACAUGUAAACCAAA | 89.8 ± 3.9% | 90.2 ± 7% | 71.9 ± 3.5% | 95.4 ± 17% |
| UCGCCGCACAUGUAAACCAAA | 6.75 ± 2% | 15.6 ± 1.9% | 26.1 ± 3.7% | 21.8 ± 8% |
| UCGCCGGACAUGUAAACCAAA | 54.3 ± 3.1% | 72.2 ± 4.9% | 51.7 ± 6.8% | 81.8 ± 10% |
| UCGCCGUACAUGUAAACCAAA | 23.3 ± 1.7% | 50.5 ± 2.8% | 35.8 ± 5.8% | 72.7 ± 11% |
| UCGCCUAACAUGUAAACCAAA | 94.4 ± 1.5% | 83.7 ± 6.1% | 73.2 ± 6.1% | 94.8 ± 10% |
| UCGCCUCACAUGUAAACCAAA | 46.3 ± 4% | 70.6 ± 6.2% | 15.4 ± 2.1% | 35 ± 7.6% |
| UCGCCUGACAUGUAAACCAAA | 80.3 ± 8.6% | 77.2 ± 5.3% | 64.5 ± 5.9% | 87.2 ± 12% |
| UCGCCUUACAUGUAAACCAAA | 68 ± 6.8% | 67.3 ± 11% | 52 ± 17% | 80.2 ± 20% |
| UCGCGAAACAUGUAAACCAAA | 84.6 ± 3.2% | 84.3 ± 3.6% | 75.7 ± 5.9% | 97 ± 17% |
| UCGCGACACAUGUAAACCAAA | 19.4 ± 3% | 69.1 ± 16% | 51.4 ± 5.7% | 74.4 ± 14% |
| UCGCGAGACAUGUAAACCAAA | 77.2 ± 1.9% | 93.1 ± 14% | 68.3 ± 6.4% | 101 ± 19% |
| UCGCGAUACAUGUAAACCAAA | 76.3 ± 4.5% | 85.2 ± 14% | 83.2 ± 3.2% | 88.6 ± 15% |
| UCGCGCAACAUGUAAACCAAA | 79 ± 1.8% | 93.4 ± 13% | 81.5 ± 13% | 96.7 ± 16% |
| UCGCGCCACAUGUAAACCAAA | 22.6 ± 2.5% | 49.3 ± 3% | 41.5 ± 6.1% | 74.5 ± 18% |

| Sequence | cell viability (HeyA8) | cell viability (H460) | cell viability (M565) | cell viability (3LL) |
| --- | --- | --- | --- | --- |
| UCGCGCGACAUGUAAACCAAA | 68.5 ± 2.1% | 74.8 ± 17% | 63.8 ± 10% | 97.9 ± 15% |
| UCGCGCUACAUGUAAACCAAA | 46.1 ± 7.1% | 47.9 ± 5.1% | 57.5 ± 1.7% | 91 ± 9.7% |
| UCGCGGAACAUGUAAACCAAA | 62.02 ± 0.55% | 60.7 ± 1.7% | 85.2 ± 8.6% | 93.2 ± 16% |
| UCGCGGCACAUGUAAACCAAA | 4.54 ± 0.29% | 21.8 ± 0.88% | 9.21 ± 0.83% | 10.9 ± 3.4% |
| UCGCGGGACAUGUAAACCAAA | 26.2 ± 4.2% | 38 ± 2% | 29 ± 3% | 60.1 ± 19% |
| UCGCGGUACAUGUAAACCAAA | 23.6 ± 2.8% | 46 ± 4.5% | 20.9 ± 1.7% | 79.5 ± 19% |
| UCGCGUAACAUGUAAACCAAA | 86 ± 6% | 66.9 ± 11% | 81.9 ± 20% | 91.6 ± 18% |
| UCGCGUCACAUGUAAACCAAA | 61.7 ± 2.9% | 56.8 ± 12% | 34.4 ± 0.62% | 81.3 ± 13% |
| UCGCGUGACAUGUAAACCAAA | 86.5 ± 0.86% | 71.4 ± 8% | 72 ± 7.6% | 92.4 ± 19% |
| UCGCGUUACAUGUAAACCAAA | 77.7 ± 7.1% | 82.4 ± 18% | 76.2 ± 16% | 96.1 ± 19% |
| UCGCUAAACAUGUAAACCAAA | 78.2 ± 5.3% | 79.1 ± 17% | 86.4 ± 12% | 104 ± 13% |
| UCGCUACACAUGUAAACCAAA | 64.1 ± 2.7% | 64.4 ± 7.6% | 59.3 ± 3.8% | 85 ± 20% |
| UCGCUAGACAUGUAAACCAAA | 91 ± 5.3% | 67 ± 8.8% | 93.1 ± 11% | 96.2 ± 14% |
| UCGCUAUACAUGUAAACCAAA | 86.2 ± 7.2% | 76.3 ± 22% | 88 ± 8.7% | 104 ± 21% |
| UCGCUCAACAUGUAAACCAAA | 79.8 ± 5.1% | 65.6 ± 13% | 87.9 ± 4.9% | 96.7 ± 13% |
| UCGCUCCACAUGUAAACCAAA | 20 ± 2.5% | 10.5 ± 2.1% | 41.9 ± 0.92% | 28.3 ± 3.5% |
| UCGCUCGACAUGUAAACCAAA | 74.6 ± 2.4% | 62.8 ± 5.2% | 71.6 ± 7.9% | 93.2 ± 10% |
| UCGCUCUACAUGUAAACCAAA | 47.5 ± 3% | 61.2 ± 10% | 75.2 ± 8.2% | 79.4 ± 17% |
| UCGCUGAACAUGUAAACCAAA | 82.4 ± 1.5% | 84.1 ± 11% | 44.7 ± 6.5% | 84.4 ± 14% |
